From patent US8669255B2, “Substituted octahydropyrrolo[1,2-a]pyrazines as calcium channel blockers” (AbbVie Inc., priority 2011, dated 2014) come the findings set out here.

Each structure is given as a SMILES string.

A word on the IC50: it is the concentration that gives 50% inhibition.

For the assay, the target named is human Cav2.2 (Homo sapiens, UniProt Q00975). Nature of the assay: In vitro assessment of calcium channel activity using FLIPR (Ca2+ influx in IMR32 cells). In kind it is cell-based. Particulars: IMR32 cells endogenously expressing human Cav2.2; 60 minute pre-incubation; 2 μM nifedipine; depolarized with 80 mM KCl; average of at least two runs unless marked (*).
For `O=C(C(N=CC(F)(F)F)c1ccc(C(F)(F)F)cc1)N1CCN2C[C@H](Oc3cnc(C4CC4)cn3)C[C@H]2C1` (stereo partly drawn) [Example 198, 1-[(7R,8aS)-7-[(5-cyclopropylpyrazin-2-yl)oxy]hexahydropyrrolo[1,2-a]-pyrazin-2(1H)-yl]-2-[(2,2,2-trifluoroethylidene)amino]-2-[4-(trifluoromethyl)-phenyl]ethanone], the IC50 stood at 750 nM.

As to `O=C(C(NC(=O)C(F)(F)F)c1cccc(C(F)(F)F)c1)N1CCN2C[C@H](Oc3cnc(C4CC4)cn3)C[C@H]2C1` (stereo partly drawn) [Example 199, N-{2-[(7R,8aS)-7-[(5-cyclopropylpyrazin-2-yl)oxy]hexahydropyrrolo[1,2-a]pyrazin-2(1H)-yl]-2-oxo-1-[3-(trifluoromethyl)phenyl]ethyl}-2,2,2-trifluoroacetamide], the IC50 was found to be 1010 nM.

Turning to `NC(C(=O)N1CCN2C[C@H](Oc3cnc(C4CC4)cn3)C[C@H]2C1)c1cccc(C(F)(F)F)c1` (stereo partly drawn) [Example 200, 2-amino-1-[(7R,8aS)-7-[(5-cyclopropylpyrazin-2-yl)oxy]hexahydro-pyrrolo[1,2-a]pyrazin-2(1H)-yl]-2-[3-(trifluoromethyl)phenyl]ethanone], the 50% inhibitory concentration (IC50) was 1200 nM.

In the case of `O=C1CN2C[C@H](Oc3cnc(C4CC4)cn3)C[C@H]2CN1Cc1cccc(C(F)(F)F)c1` [Example 201, (7R,8aS)-7-[(5-cyclopropylpyrazin-2-yl)oxy]-2-[3-(trifluoromethyl)-benzyl]hexahydropyrrolo[1,2-a]pyrazin-3(4H)-one], the IC50 came out at 2630 nM.

Consider `O=C(C(NCC(F)F)c1cccc(C(F)(F)F)c1)N1CCN2C[C@H](Oc3cnc(C4CC4)cn3)C[C@H]2C1` (stereo partly drawn) [Example 202, 1-[(7R,8aS)-7-[(5-cyclopropylpyrazin-2-yl)oxy]hexahydropyrrolo[1,2-a]-pyrazin-2(1H)-yl]-2-[(2,2-difluoroethyl)amino]-2-[3-(trifluoromethyl)phenyl]ethanone], for which the half-inhibitory concentration (IC50) was 1050 nM.

In the case of `O=C(C(c1cccc(C(F)(F)F)c1)N1CCC(F)(F)C1)N1CCN2C[C@H](Oc3cnc(C4CC4)cn3)C[C@H]2C1` (stereo partly drawn) [Example 203, 1-[(7R,8aS)-7-[(5-cyclopropylpyrazin-2-yl)oxy]hexahydropyrrolo[1,2-a]-pyrazin-2(1H)-yl]-2-(3,3-difluoropyrrolidin-1-yl)-2-[3-(trifluoromethyl)phenyl]ethanone], the IC50 was 670 nM.

As for `O=C(C(NCCF)c1cccc(C(F)(F)F)c1)N1CCN2C[C@H](Oc3cnc(C4CC4)cn3)C[C@H]2C1` (stereo partly drawn) [Example 204, 1-[(7R,8aS)-7-[(5-cyclopropylpyrazin-2-yl)oxy]hexahydropyrrolo[1,2-a]-pyrazin-2(1H)-yl]-2-[(2-fluoroethyl)amino]-2-[3-(trifluoromethyl)phenyl]ethanone], the IC50 turned out to be 1630 nM.

Turning to `O=C(c1cccc(C(F)(F)F)c1)N1CCN2C(=O)C(Oc3cnc(C4CC4)cn3)CC2C1` (stereo not drawn) [Example 205, 7-[(5-cyclopropylpyrazin-2-yl)oxy]-2-[3-(trifluoromethyl)benzoyl]-hexahydropyrrolo[1,2-a]pyrazin-6(2H)-one], the IC50 amounted to 4200 nM.

On to `NC(C(=O)N1CCN2C[C@H](Oc3cnc(C4CC4)cn3)C[C@H]2C1)c1ccc(C(F)(F)F)cc1` (stereo partly drawn) [Example 206, 2-amino-1-[(7R,8aS)-7-[(5-cyclopropylpyrazin-2-yl)oxy]hexahydro-pyrrolo[1,2-a]pyrazin-2(1H)-yl]-2-[4-(trifluoromethyl)phenyl]ethanone], for which the IC50 was determined as 1230 nM.

As for `O=C(C(NC(=O)C(F)(F)F)c1ccc(C(F)(F)F)cc1)N1CCN2C[C@H](Oc3cnc(C4CC4)cn3)C[C@H]2C1` (stereo partly drawn) [Example 207, N-{2-[(7R,8aS)-7-[(5-cyclopropylpyrazin-2-yl)oxy]hexahydropyrrolo[1,2-a]pyrazin-2(1H)-yl]-2-oxo-1-[4-(trifluoromethyl)phenyl]ethyl}-2,2,2-trifluoroacetamide], the IC50 was found to be 990 nM.

As for `O=C(NC(C(=O)N1CCN2C[C@H](Oc3cnc(C4CC4)cn3)C[C@H]2C1)c1cccc(C(F)(F)F)c1)C(F)F` (stereo partly drawn) [Example 208, N-{2-[(7R,8aS)-7-[(5-cyclopropylpyrazin-2-yl)oxy]hexahydropyrrolo[1,2-a]pyrazin-2(1H)-yl]-2-oxo-1-[3-(trifluoromethyl)phenyl]ethyl}-2,2-difluoroacetamide], the IC50 worked out at 2750 nM.

As for `O=C(CC(F)(F)F)NC(C(=O)N1CCN2C[C@H](Oc3cnc(C4CC4)cn3)C[C@H]2C1)c1cccc(C(F)(F)F)c1` (stereo partly drawn) [Example 209, N-{2-[(7R,8aS)-7-[(5-cyclopropylpyrazin-2-yl)oxy]hexahydropyrrolo[1,2-a]pyrazin-2(1H)-yl]-2-oxo-1-[3-(trifluoromethyl)phenyl]ethyl}-3,3,3-trifluoropropanamide], the IC50 is 1850 nM.

As for `CC(=O)NC(C(=O)N1CCN2C[C@H](Oc3cnc(C4CC4)cn3)C[C@H]2C1)c1cccc(C(F)(F)F)c1` (stereo partly drawn) [Example 210, N-{2-[(7R,8aS)-7-[(5-cyclopropylpyrazin-2-yl)oxy]hexahydropyrrolo[1,2-a]pyrazin-2(1H)-yl]-2-oxo-1-[3-(trifluoromethyl)phenyl]ethyl}acetamide], the IC50 was determined as 4840 nM.

Consider `O=C([C@@H](NC(=O)C(F)(F)F)c1cccc(C(F)(F)F)c1)N1CCN2C[C@H](Oc3cnc(C4CC4)cn3)C[C@H]2C1` [Example 211, N-{(1S)-2-[(7R,8aS)-7-[(5-cyclopropylpyrazin-2-yl)oxy]hexahydro-pyrrolo[1,2-a]pyrazin-2(1H)-yl]-2-oxo-1-[3-(trifluoromethyl)phenyl]ethyl}-2,2,2-trifluoroacetamide], for which the half-inhibitory concentration (IC50) was determined as 2270 nM.

With `O=C([C@H](NC(=O)C(F)(F)F)c1cccc(C(F)(F)F)c1)N1CCN2C[C@H](Oc3cnc(C4CC4)cn3)C[C@H]2C1` [Example 212, N-{(1R)-2-[(7R,8aS)-7-[(5-cyclopropylpyrazin-2-yl)oxy]hexahydropyrrolo-[1,2-a]pyrazin-2(1H)-yl]-2-oxo-1-[3-(trifluoromethyl)phenyl]ethyl}-2,2,2-trifluoro-acetamide], the concentration for half-maximal inhibition (IC50) is 1180 nM.
